From PubChem BioAssay AID1918937 (Molecular Pharmacology Branch, DTP, NCI, 2023)
Not every entry of the source has a single result; some have several. This is not the full list of results. There may be further records. The values listed for one entry are repeats in other runs, samples, wells, individuals or studies. Marks such as (2×) count equal records among those shown.

Test system: 521955-158-R2-J5-PDC complex spheroid viability
Assay: Anticancer human tumor 521955-158-R2-J5-PDC patient-derived pancreatic carcinoma cell line growth inhibition
Conditions: for viability, T/C: stronger effect = lower value
Text: Multicellular complex tumor spheroid response to LSD1 Inhibitor Iadademstat in combination with a variety of drugs and investigational agents in selected tumor cell lines
The current study was undertaken to assess response to LSD1 inhibitors in combination with standard-of-care drugs and investigational agents in solid tumor complex spheroid models as well as in the K-562 leukemia. Complex spheroids include a stromal component modeled by human endothelial cells (HUVEC) and fibroblasts modeled by human mesenchymal stem cells (MSCs). The concentration ranges selected for each drug and investigational agent were based upon clinically achievable concentrations if the clinical Cmax of the agent was known.
Compounds. The drugs and investigational agents used in this study are listed on Table 1. All of the agents used, including staurosporine (NSC755774) and gemcitabine (NSC613327), were obtained from the Developmental Therapeutics Program, NCI. FDA-approved anticancer drugs are available from the NCI at http://dtp.nci.nih.gov/branches/dscb/oncology_drugset_explanation.html. Drugs and investigational agents were >95% pure by proton nuclear magnetic resonance (NMR) and liquid chromatography/mass spectrometry (LC/MS). Stock solutions were prepared at 400x in DMSO, stored at -70 degrees C, and diluted in fresh medium prior to their use. The final concentration of DMSO in cell culture wells never exceeded 0.25% (v/v). The FDA-approved anticancer drug set is available from the Developmental Therapeutics Program at https://dtp.cancer.gov/organization/dscb/obtaining/available_plates.htm. All drugs and investigational agents were tested over a range starting from a high concentration at or near the clinical Cmax and decreasing in half-log increments. If the clinical Cmax for an agent had not been determined, the highest concentration tested was 10 microM.
Cell Lines. The patient-derived cancer cell (PDC) lines: 292921-168-R-J2-PDC, K24384-001-R-PDC, and 521955-158-R2-J5-PDC pancreatic carcinomas, 556581-035-R-J1 ovarian carcinoma, 324938-238-R-J1-PDC, 855422-203-R-J1-PDC and 883617-216-R-J1-PDC urothelial bladder carcinomas, 743489-274-T-PDC renal cell carcinoma, 138582-R-J1 Merkel cell tumor, K60290-347-R-J1 and K57222-313-R-J1-PDC glioblastomas, 653999-131-R-J2-PDC, LG0703-F948-PDC, and 349418-098-R-PDC non-small cell lung carcinomas, 885512-296-R-J2-PDC, 171881-019-R-J1-PDC breast carcinomas and 186277-243-T-J2-PDC and 233499-124-R-J2-PDC colon carcinomas were obtained from the NCI Patient-Derived Models Repository (PDMR, https://pdmr.cancer.gov). The established cell lines NCI/ADR-RES (RRID:CVCL_14520 and OVCAR-5 (RRID:CVCL_1628) ovarian carcinomas, 786-O (RRID:CVCL_1051) and A498 (RRID:CVCL_A498) renal cell carcinoma, NCI-H211 (ATCC, cat. CRL-5824; RRID:CVCL_1529), NCI-H196 (ATCC, cat. CRL-5823, RRID:CVCL_1509), SW 1271 (ATCC, cat. CRL-2177, RRID:CVCL_1716) and NCI-H1876 (ATCC, cat. CRL-5902, RRID:CVCL_1503) small cell lung carcinomas, MDA-MB-231 (RRID:CVCL_0062) and MDA-MB-468 (RRID:CVCL_0419)breast carcinomas (10-12). Pooled donor human umbilical vein endothelial cells (HUVEC, Lonza, cat. CC-2519) and human mesenchymal stem cells (hMSC, Lonza, cat. PT-2501) were purchased from Lonza (Walkersville, MD).
Cell Culture. All cells were maintained in an incubator at 37 degrees C and 5% CO2 with 95% humidity. The PDC lines were cultured according to standard operating procedures established by the NCI PDMR (https://pdmr.cancer.gov). Briefly all PDCs were thawed and cultured in Matrigel-coated flasks prepared with a working solution of 1X Ham's F-12 nutrient mix, without supplementation (Invitrogen, Waltham, MA, cat. 11765054), 100 U/mL penicillin-streptomycin (Invitrogen, cat. 15140122), and 2.5% Matrigel (Corning Inc., Corning, NY, cat. 354248) for the first three passages. […]
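Further: spheroids exposed to agents for seven days.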
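Wherever viability, T/C is given: percent of DMSO vehicle control luminescence viability.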

SMILES | viability, T/C (compound alone 3 µM) | viability, T/C (compound alone 0.1 µM) | viability, T/C (compound alone 1 µM) | viability, T/C (compound alone 3.16 µM) | viability, T/C (compound alone 10 µM) | IC50 (compound alone) | viability, T/C (compound alone 0.316 µM)
O=C(C=Cc1cccc(S(=O)(=O)Nc2ccccc2)c1)NO | 103% and 0.3% |  |  |  |  |  | 
NC1CCC(NC2CC2c2ccccc2)CC1 (stereo not given) |  | 89.8, 96.4, 115, 93.8, 102 (3×), 110 (3×), 114, 107, 99.5, 101, 100, 99.4, 94.5, 104, 89.7, 92.3, 87.7, 96.3, 96.6, 95.4, 85.4% | 86.3, 91.3, 94.3, 92, 92.9, 91.8, 102, 106 (2×), 99.6, 88.6, 95.1, 94, 90, 93.6, 90.6, 101, 98.5, 89.6, 86.4, 85.1, 92.1, 92.4, 75.7, 83.4% | 86.3, 87.9, 97.7, 94.7, 97.9, 106, 104 (2×), 90.3, 111, 99.6, 99.8, 93.8, 96.6, 96.3, 95.9, 93.6, 81, 86.7, 92.2, 99.1, 91.4, 84.9% | 85.1, 91.7, 95.4, 98.5, 97.9, 94.3, 103, 91.8, 113, 96.8, 93.8, 92.2, 95, 95.8, 109, 99.1, 91.5, 78.4, 91.1, 104, 101, 78.3, 78.2% |  | 
O=C(C=Cn1cnc(-c2cc(C(F)(F)F)cc(C(F)(F)F)c2)n1)NNc1cnccn1 |  |  |  |  |  | < 3.16 nM and 182 nM | 
NC1CC1c1ccc(-c2cccc(O)c2)cc1 (stereo not given) |  |  | 73.2, 87.6, 83, 75.8 (2×), 84.9 (2×), 80.4, 82.4, 81.3, 70.2, 75, 78.2, 80.9, 79.4, 93.7, 78.8, 81.9, 80.1, 85.4, 79.7, 74.5, 65.4, 58.6% | 75.4, 82.7, 82.9, 97.2, 89.7, 95, 92.4, 87.5, 86.7, 72.3, 82.1 (2×), 79.4 (2×), 89.2, 75.7, 89, 88.3, 92.5, 76.6, 84.5, 90.4, 86.1, 74.5, 52.2% | 73.7, 83.6, 96.3, 82.4, 86.9, 97, 88.6 (2×), 84.8, 74.9, 91.3, 82.9, 89.3, 93.2, 80.8, 97.3, 94.8, 92.4 (2×), 103, 79.6, 86.8, 86.6, 74.3, 63.4% |  | 81, 88.1 (2×), 81.8, 81.5, 93.1, 87.8, 95.2, 77.1, 86.8, 87.4, 72.8, 91.1, 78.8, 87.7, 89.9, 83.2, 83.1, 81.9, 81.3, 97.2, 78.3, 82.7, 88.8, 49.8%
